# Structures can show the parent of a compound that is named as a salt. ± gives the standard deviation of the averaged measurements. In all, about 1,300 compounds were measured (“normalised cell viability”: median about 1, lowest 2% from about 0.14 on). Some of the results follow.
# Test system: V-C8 (BRCA2-deficient hamster cells)
# Experiment: normalised cell viability (fraction of plate median); higher = more viable cells (less toxic)
# Conditions: 5 µM
# Method in brief: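 Cell viability was measured with a resazurin assay, normalised to the plate median (modified robust per cent of sample) and averaged over triplicate wells. Hamster V-C8 cells lacking BRCA2 and V-C8 cells with BRCA2 restored were seeded in 96-well plates. After 24 h, library drugs from 10 mM DMSO stocks were added at a final 5 μM in 100 μl medium and left for 3 days (screen 1) or 6 days (screen 2), with solvent-only wells alongside.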
SMILES,normalised cell viability (treatment time: 3 days),normalised cell viability (treatment time: 6 days)
O=[N+]([O-])c1cc([As](=O)(O)O)ccc1O [Roxarsone],1.049 ± 0.0048,1.09 ± 0.012
COc1ccc(CCN2CCC(Nc3nc4ccccc4n3Cc3ccc(F)cc3)CC2)cc1 [Astemizole],0.13 ± 0.0054,0.099 ± 0.003
CC(=O)O[C@H]1C[C@H](O[C@H]2[C@@H](O)C[C@H](O[C@H]3[C@@H](O)C[C@H](O[C@H]4CC[C@@]5(C)[C@H](CC[C@@H]6[C@@H]5C[C@@H](O)[C@]5(C)[C@@H](C7=CC(=O)OC7)CC[C@]65O)C4)O[C@@H]3C)O[C@@H]2C)O[C@H](C)[C@H]1O[C@@H]1O[C@H](CO)[C@@H](O)[C@H](O)[C@H]1O [Lanatoside C],0.974 ± 0.08,1.06 ± 0.011
Oc1cc(Cl)ccc1Oc1ccc(Cl)cc1Cl [Triclosan],0.974 ± 0.022,1 ± 0.02
C[N+]1([O-])[C@@H]2C[C@@H](OC(=O)[C@H](CO)c3ccccc3)C[C@H]1[C@@H]1O[C@@H]12 (stereo not given in full) [Scopolamin-N-oxide hydrobromide],0.997 ± 0.074,0.945 ± 0.092
C[C@]12N[C@H](Cc3ccccc31)c1ccccc12 [Dizocilpine maleate],1.02 ± 0.042,1 ± 0.059
CCN(CC)C(C)C(=O)c1ccccc1 (stereo not given) [Amfepramone hydrochloride],1.07 ± 0.1,1.14 ± 0.085
O[C@@H]1CCCC[C@H]1N1CCC(c2ccccc2)CC1 [L(-)-vesamicol hydrochloride],1.07 ± 0.013,1.03 ± 0.048
COc1ccc(Cc2nccc3cc(OC)c(OC)cc23)cc1OC [Papaverine hydrochloride],0.655 ± 0.1,0.636 ± 0.0089
CCC1(CC)C(=O)C=CNC1=O [Pyrithyldione],1.02 ± 0.057,1.03 ± 0.032
Fc1ccc(C(OCCN2CCN(CCCc3ccccc3)CC2)c2ccc(F)cc2)cc1,0.159 ± 0.0052,0.182 ± 0.012
CC(C)(C)NCC(O)c1cc(Cl)c(N)c(Cl)c1 (stereo not given) [Clenbuterol hydrochloride],1.18 ± 0.031,1.03 ± 0.076
"CC[C@@]1(O)C(=O)OCc2c1cc1n(c2=O)Cc2cc3ccccc3nc2-1 [Camptothecine (S,+)]",0.148 ± 0.0039,0.109 ± 0.008
CCC(=O)O[C@@](Cc1ccccc1)(c1ccccc1)[C@@H](C)CN(C)C [Levopropoxyphene napsylate],0.958 ± 0.074,1.06 ± 0.084
C[N+](C)(C)CCCCCCCCCC[N+](C)(C)C [Decamethonium bromide],1.18 ± 0.34,1.019 ± 0.0077
c1ccc2nc(N3CCNCC3)ccc2c1 [Quipazine dimaleate salt],1.1 ± 0.03,0.944 ± 0.11
CN1C[C@H](C(=O)N[C@]2(C)O[C@@]3(O)[C@@H]4CCCN4C(=O)[C@H](Cc4ccccc4)N3C2=O)C[C@@H]2c3cccc4[nH]cc(c34)C[C@H]21 [Dihydroergotamine tartrate],1.06 ± 0.024,1.02 ± 0.12
C[N+]1(C)[C@@H]2CC[C@H]1C[C@@H](OC(=O)C(CO)c1ccccc1)C2 (stereo not given in full) [Methylatropine nitrate],1.11 ± 0.021,1.15 ± 0.091
COc1cccc(C2(O)CCCCC2CN(C)C)c1 (stereo not given) [Tramadol hydrochloride],1.05 ± 0.028,1.05 ± 0.076
CC(CCc1ccccc1)NC(C)C(O)c1ccc(O)cc1 (stereo not given) [Nylidrin],1.01 ± 0.026,0.976 ± 0.061
CC(=O)OC1CN2CCC1CC2 (stereo not given) [Aceclidine Hydrochloride],0.906 ± 0.019,0.989 ± 0.015
CCCN1C[C@H](CSC)C[C@@H]2c3cccc4[nH]cc(c34)C[C@H]21 [Pergolide mesylate],1.08 ± 0.048,1.01 ± 0.013
CCC(C)C1O[C@]2(C=C[C@@H]1C)C[C@@H]1CC(C/C=C(\C)[C@@H](OC3C[C@H](OC)[C@@H](OC4C[C@H](OC)[C@@H](O)[C@H](C)O4)[C@H](C)O3)[C@@H](C)/C=C/C=C3\COC4[C@H](O)C(C)=CC(C(=O)O1)[C@]34O)O2 (stereo not given in full) [Avermectin B1a],0.486 ± 0.016,0.475 ± 0.052
COc1ccc(CCN)cc1OC [Homoveratrylamine],1.07 ± 0.039,1.06 ± 0.041
C[C@]12CCC(=O)C=C1CC[C@@H]1[C@@H]2C(=O)C[C@]2(C)C(=O)CC[C@@H]12 [Adrenosterone],1.19 ± 0.085,1.11 ± 0.017

SMILES,normalised cell viability (treatment time: 3 days),normalised cell viability (treatment time: 6 days)
C[N+]1(C)CCOC(O)(c2ccc(-c3ccc(C4(O)C[N+](C)(C)CCO4)cc3)cc2)C1 (stereo not given) [Hemicholinium bromide],1 ± 0.038,1.03 ± 0.05
O=C(O)CCCc1ccc(N(CCCl)CCCl)cc1 [Chlorambucil],0.163 ± 0.01,0.227 ± 0.015
CC[C@@H](C(N)=O)N1CCCC1=O [Levetiracetam],0.931 ± 0.042,0.782 ± 0.021
COc1ccc(C(=O)N2CCCC2=O)cc1 [Aniracetam],1.11 ± 0.047,1.06 ± 0.022
CCN[C@@H](C)Cc1cccc(C(F)(F)F)c1 [Dexfenfluramine hydrochloride],0.908 ± 0.092,1.02 ± 0.074
C[CH2][Hg][S]c1ccccc1C(=O)[O-].[Na+] [Thimerosal],0.0995 ± 0.0026,0.126 ± 0.0061
COc1ccc2c(c1)[C@]13CCCC[C@@H]1[C@H](C2)N(C)CC3 [Dextromethorphan hydrobromide monohydrate],1.17 ± 0.041,1.06 ± 0.14
"CNCC(O)c1ccc(O)cc1 (racemic) [(+,-)-Synephrine]",1.05 ± 0.035,1.02 ± 0.0054
C[C@]12CC[C@@H](O)C[C@@H]1CC[C@@H]1[C@@H]2CC[C@]2(C)C(=O)CC[C@@H]12 [Androsterone],1.07 ± 0.03,1.05 ± 0.071
C=CC[C@]1(O)CC[C@H]2[C@@H]3CCC4=CC(=O)CCC4=C3C=C[C@@]21C [Altrenogest],0.769 ± 0.022,0.73 ± 0.068
CC(Cc1ccc(O)cc1)NCC(O)c1cc(O)cc(O)c1 (stereo not given) [Fenoterol hydrobromide],1.07 ± 0.052,1.12 ± 0.15
C=C1[C@@H]2CC[C@H]3[C@]4(C)C[C@H](O[C@@H]5O[C@H](CO)[C@@H](OS(=O)(=O)O)[C@H](OS(=O)(=O)O)[C@H]5OC(=O)CC(C)C)C[C@@H](C(=O)O)[C@H]4CC[C@]3(C2)[C@@H]1O [Atractyloside potassium salt],1.05 ± 0.051,1.09 ± 0.079
C1CCc2nnnn2CC1 [Pentylenetetrazole],1.01 ± 0.085,1.01 ± 0.087
CC(C)CC(N(C)C)C1(c2ccc(Cl)cc2)CCC1 (stereo not given) [Sibutramine HCl],0.653 ± 0.088,0.729 ± 0.017
O=c1[nH]c2ccccc2n1CCCN1CCC(n2c(=O)[nH]c3cc(Cl)ccc32)CC1 [Domperidone],1.02 ± 0.011,1.19 ± 0.15
O=C([O-])c1ccccc1-c1c2cc(Br)c(=O)cc-2oc2[c]([Hg+])c([O-])c(Br)cc12.[Na+].[Na+].[OH-] [Merbromin],0.669 ± 0.048,0.583 ± 0.016
CC(C)[N+](C)(CCC(C(N)=O)(c1ccccc1)c1ccccc1)C(C)C [Isopropamide iodide],1.07 ± 0.1,1.04 ± 0.15
C#C[C@]1(O)CC[C@H]2[C@@H]3CCC4=CC(=O)CC[C@]4(C)[C@H]3CC[C@@]21C [Ethisterone],1.01 ± 0.068,1.05 ± 0.024
S=C(NC1CCCCC1)N1CCC(c2cnc[nH]2)CC1 [Thioperamide maleate],1 ± 0.018,1.02 ± 0.014
C[C@]12CC[C@H]3[C@@H](CCC4=CC(=O)CC[C@@H]43)[C@@H]1CC[C@@H]2O [Nandrolone],0.993 ± 0.11,1.02 ± 0.028
COc1ccc(CN2CCNCC2)c(OC)c1OC [Trimetazidine dihydrochloride],1.05 ± 0.06,1.06 ± 0.023
CC(C)N(CCC(C(N)=O)(c1ccccc1)c1ccccn1)C(C)C (stereo not given) [Disopyramide],1.08 ± 0.09,1.004 ± 0.0085
C[C@H](N)[C@H](O)c1ccc(O)c(O)c1 [Levonordefrin],1.05 ± 0.05,1.02 ± 0.028
O=[N+]([O-])O[C@@H]1CO[C@H]2[C@@H]1OC[C@@H]2O [Isosorbide mononitrate],1.04 ± 0.048,1.02 ± 0.033
CN1[C@@H]2CC[C@H]1C[C@@H](OC(=O)[C@H](CO)c1ccccc1)C2 [Hyoscyamine (L)],1.04 ± 0.088,0.959 ± 0.047

# Source: the supplement of paper PMC6609913
